About 120 (0.25%) of roughly 48,000 compounds were called active. Not shown: some 4% with an inconclusive outcome. The call rests on the fitted dose curve; in most records, active means well fitted activation curve with a large enough effect; inconclusive means small, poorly fitted or top-dose-only effect, or another doubt; inactive means no such curve, though single readings can be large or run the other way. The list shows a part of the results.
Test: Primary qHTS for Identification of Small Molecule Activators of Huntingtin-Antisense Promoter Activity; further: nearly all actives have a fitted effect of over 55% in size
Details: HEK293 HTT-AS promoter firefly luciferase reporter, 24 h; series mostly up to 57.5 µM; activity change, positive = activation: at the top concentration
Method in brief: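 Firefly luciferase signal from promoter-reporter HEK293 cells was scaled between vehicle (0%) and zero RLU (-100%). Compounds were tested at final concentrations of up to 57.5 uM over 24 h at 37 degrees C. PTC124 at 50 uM final served as control inhibitor.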

Q: For `Cn1c(=O)c(=O)n(C)c2cc(S(=O)(=O)N3CCN(c4ccc(F)cc4)CC3)ccc21`, which “activity change, positive = activation” value is on record?
A: inactive: -11.8%

Q: Which “activity change, positive = activation” value does the source give for `COc1cc(C2CC(=O)c3cnc(N4CCN(CCO)CC4)nc3C2)cc(OC)c1OC` (centres undefined) here?
A: inactive: -18.4%

Q: With `CCCC(=O)Nc1cc(C(=O)NCc2ccccc2)ccc1S(=O)(=O)c1ccc(Cl)cc1` as the compound, how does the “activity change, positive = activation” value read?
A: inactive: -7.01%

Q: With `CCOC(=O)c1ccc(N2C(=O)c3n[nH]c(-c4ccco4)c3C2c2ccc(OCC)cc2)cc1` (centres undefined) as the compound, how does the “activity change, positive = activation” value read?
A: inactive: -65.7%

Q: Which “activity change, positive = activation” value does the source give for `CC(C)c1ccc(NC(=O)CC2NCCNC2=O)cc1` (centres undefined) here?
A: inactive: 7.8%

Q: With `O=C(CSc1nc2c(oc3ccccc32)c(=O)n1-c1ccccc1)Nc1ccccc1F` as the compound, how does the “activity change, positive = activation” value read?
A: inactive: -37.7%

Q: Which “activity change, positive = activation” value does the source give for `CCCN(CCC)CCCNC(=O)c1cn(CC)c2ccc(S(=O)(=O)N(C)C3CCCCC3)cc2c1=O` here?
A: inactive: -8.19%

Q: For `CCc1ccc(OCc2cc(=O)n3c4c(sc3n2)CCCC4)cc1`, which “activity change, positive = activation” value is on record?
A: inactive: 12.2%

Q: With `COc1cccc(N2CCN(C(=O)C3Cc4ccccc4N3C(C)=O)CC2)c1` (centres undefined) as the compound, how does the “activity change, positive = activation” value read?
A: inactive: -12.6%

Q: Which “activity change, positive = activation” value does the source give for `O=C(C1CCC1)N1CCCc2cc(S(=O)(=O)N3CCN(c4ccccc4)CC3)ccc21` here?
A: inactive: -14.1%

Q: For `CCOC(=O)c1c(C)[nH]c(CCC(=O)Nc2c(C)cccc2CC)c1C`, which “activity change, positive = activation” value is on record?
A: inactive: -28.6%

Q: Which “activity change, positive = activation” value does the source give for `CCNc1ncnc2c1nnn2C` here?
A: inactive: 1.78%

Q: Which “activity change, positive = activation” value does the source give for `Cc1cccc(-c2nc3ccccc3n2Cc2ccccc2)c1` here?
A: inactive: -20.2%

Q: For `CCC(=O)Nc1ccccc1-c1nc2ccccc2n(CC(=O)c2ccc(Cl)cc2)c1=O`, which “activity change, positive = activation” value is on record?
A: inactive: -0.0204%

Q: For `CCOC(=O)N1CCc2c(sc(NCc3cccc(F)c3)c2C(=O)Nc2ccc(OC)cc2OC)C1`, which “activity change, positive = activation” value is on record?
A: inactive: -91.6%

Q: For `Cc1ccc(S(=O)(=O)c2nnn3c2nc(NC(C)C)c2sccc23)cc1`, which “activity change, positive = activation” value is on record?
A: inactive: -35.3%

Q: For `CCNC(=O)c1ccc(-n2c(-c3ccccc3)cc3c2CCCCC3)cc1`, which “activity change, positive = activation” value is on record?
A: inactive: 4.55%

Q: For `Cc1c(C(=O)Nc2cccc(C(F)(F)F)c2)oc2ccc(S(=O)(=O)N(C)C3CCCCC3)cc12`, which “activity change, positive = activation” value is on record?
A: inactive: -13.7%

Q: For `O=C(CC1C(=O)N(c2ccccc2)C(=O)N1CCc1cccs1)Nc1ccc(Cl)cc1` (centres undefined), which “activity change, positive = activation” value is on record?
A: inactive: -18.1%

Q: For `COc1ccc(OC)c(NC(=O)[C@H](Cc2ccccc2)N2Cc3ccccc3C2=O)c1`, which “activity change, positive = activation” value is on record?
A: inactive: -6.75%

Q: For `COc1cccc(CNC(=O)CCc2c(C)nn(-c3ccc(N4CCOCC4)nn3)c2C)c1`, which “activity change, positive = activation” value is on record?
A: inactive: 3.73%

Q: With `CC(=O)Nc1nonc1-c1nnc(SCc2ccc(C)cc2)n1C` as the compound, how does the “activity change, positive = activation” value read?
A: inactive: -0.877%

Q: With `CCOC(=O)CNc1ncnc2c1nnn2C` as the compound, how does the “activity change, positive = activation” value read?
A: inactive: 7.5%

Q: With `CCCNC(=O)c1c2c(nc3ccccc13)C(=O)N(C1CCCCC1)C2` as the compound, how does the “activity change, positive = activation” value read?
A: inactive: 4.43%

Q: Which “activity change, positive = activation” value does the source give for `CCCc1cc(=O)[nH]c2nnc(SCC(=O)Nc3cccc(C)c3)n12` here?
A: inactive: -17.5%

Q: For `Cc1cccn2c(=O)c(/C=C(\C#N)c3nc4ccccc4n3C)c(Oc3ccc(Cl)cc3)nc12`, which “activity change, positive = activation” value is on record?
A: inactive: -6.04%

Q: Which “activity change, positive = activation” value does the source give for `COC(=O)c1c(NC(=O)COc2ccc(OC)cc2)sc2c1CCC(C)C2` (centres undefined) here?
A: inactive: -35.6%

Q: Which “activity change, positive = activation” value does the source give for `CCCc1cc(=O)[nH]c2nnc(SCCC(C)C)n12` here?
A: inactive: -4.52%

Q: For `COc1cc(NC(=O)CSc2ccc(-c3sc(-c4ccccc4)nc3C)nn2)cc(OC)c1`, which “activity change, positive = activation” value is on record?
A: inactive: -1.42%

Q: Which “activity change, positive = activation” value does the source give for `COc1ccc(CN2CCN(S(=O)(=O)c3ccccc3)CC2)c(OC)c1` here?
A: inactive: -19.5%

Q: With `CCCn1cc(S(=O)(=O)c2ccc(OC)cc2)c(=O)c2cc(F)c(N3CCCCCC3)cc21` as the compound, how does the “activity change, positive = activation” value read?
A: inactive: -7.49%

Q: With `CC(C)Oc1ccc(CNC(=O)C2CCCN(S(=O)(=O)c3ccc4c(ccn4C)c3)C2)cc1` (centres undefined) as the compound, how does the “activity change, positive = activation” value read?
A: inactive: -34.4%

Q: For `CCn1cc(S(=O)(=O)c2ccc(C)cc2C)c(=O)c2cc(F)c(N3CCCC3)cc21`, which “activity change, positive = activation” value is on record?
A: inactive: -23.8%

Q: Which “activity change, positive = activation” value does the source give for `Cc1ccc(CSc2nnc3[nH]c(=O)cc(C)n23)cc1` here?
A: inactive: 4.36%

Q: Which “activity change, positive = activation” value does the source give for `NC(=O)NNc1ccccc1` here?
A: inactive: -11.5%

Q: For `CN1Cc2c(N)cccc2C(c2ccccc2)C1` (centres undefined), which “activity change, positive = activation” value is on record?
A: inactive: -2.29%

Q: Which “activity change, positive = activation” value does the source give for `CCCN1C(=O)C2(c3ccccc31)c1c(oc3cc(C)c(C)cc3c1=O)C(=O)N2CCCOC` (centres undefined) here?
A: inactive: -8.06%

Q: Which “activity change, positive = activation” value does the source give for `CCC(=O)N1c2ccccc2CC1C(=O)NCCc1ccc(OC)cc1OC` (centres undefined) here?
A: inactive: -8.17%

Q: Which “activity change, positive = activation” value does the source give for `CCc1cccc(-n2c(=O)c3cccnc3n2CC(=O)Nc2ccccc2C(=O)OC)c1` here?
A: inactive: -5.22%

Q: For `CCOc1ccc(NC(=O)c2ccc3nc(Cc4ccccc4)oc3c2)cc1`, which “activity change, positive = activation” value is on record?
A: inactive: 15.4%

Q: For `Cc1ccc2oc(C(=O)Nc3sc4c(c3C(=O)NCc3ccccc3)CCCC4)cc(=O)c2c1`, which activity change, positive = activation is on record?
A: inactive: 7.08% [at 11.5 µM, percent change from vehicle, -100% = no light]

Q: Which “activity change, positive = activation” value does the source give for `CCC1CN(C(=O)Nc2cc(OC)cc(OC)c2)c2ccccc2S1` (centres undefined) here?
A: inactive: -26.2%

Q: Which “activity change, positive = activation” value does the source give for `Cc1ccccc1NC(=O)N1CCC(CN2CCCC2)CC1` here?
A: inactive: -7.52%

Q: For `Cc1ccc(OCC(=O)OCc2cc(=O)n3c(C)csc3n2)cc1`, which “activity change, positive = activation” value is on record?
A: inactive: -15.1%

Q: With `COc1ccc(-n2nc3cc(C)c(NC(=O)c4ccc(C)cc4C)cc3n2)cc1Cl` as the compound, how does the “activity change, positive = activation” value read?
A: inactive: 12%

Q: With `Nc1ccc(C(=O)OCC(O)CO)cc1` (centres undefined) as the compound, how does the “activity change, positive = activation” value read?
A: inactive: -2.52%

Q: With `CCC(=O)N1CCc2cc(S(=O)(=O)NC(Cc3ccccc3)C(=O)NCc3ccc(F)cc3)ccc21` (centres undefined) as the compound, how does the “activity change, positive = activation” value read?
A: inactive: 0.877%

Q: Which “activity change, positive = activation” value does the source give for `CC1C(=O)N2CCCc3cc(S(=O)(=O)Nc4ccc(Br)cc4F)cc1c32` (centres undefined) here?
A: inactive: -14.6%

Q: For `CCOc1cc(-c2nnc(SCC(=O)NCc3ccc(C)cc3)nc2-c2ccc(OC)c(OCC)c2)ccc1OC`, which “activity change, positive = activation” value is on record?
A: inactive: 9.08%

From PubChem BioAssay AID1508624 (National Center for Advancing Translational Sciences (NCATS), 2021)
